Sequences and labels used below:
B1: GCCAGUU (DNA:RNA)
RNA: GGGAGACCGGAAUUCAGAUUGUCCGCCAGUUUUAAAUCCCGUCGUAGCCACCA
DNA 1: CAATCTGAATTCCGGTCTCCC
DNA 2: TGGTGGCTACGACGGGATT
B2: CAGUCAA (DNA:RNA)
RNA: GGGAGACCGGAAUUCAGAUUGUCCCAGUCAAUUAAAUCCCGUCGUAGCCACCA
DNA 1: CAATCTGAATTCCGGTCTCCC
DNA 2: TGGTGGCTACGACGGGATT
B3: AGUAUUC (DNA:RNA)
RNA: B1 RNA with G25A, C26G, C27U, G29U, U31C
DNA 1: CAATCTGAATTCCGGTCTCCC
DNA 2: TGGTGGCTACGACGGGATT
B4: CAAACCA (DNA:RNA)
RNA: B2 RNA with G27A, U28A, A30C
DNA 1: CAATCTGAATTCCGGTCTCCC
DNA 2: TGGTGGCTACGACGGGATT
B5: UCAGUUC (DNA:RNA)
RNA: B1 RNA with G25U, C27A, A28G, G29U, U31C
DNA 1: CAATCTGAATTCCGGTCTCCC
DNA 2: TGGTGGCTACGACGGGATT
B6: UAAAUCU (DNA:RNA)
RNA: B1 RNA with G25U, C26A, C27A, G29U, U30C
DNA 1: CAATCTGAATTCCGGTCTCCC
DNA 2: TGGTGGCTACGACGGGATT
B7: GCUUCAC (DNA:RNA)
RNA: B2 RNA with C25G, A26C, G27U, A31C
DNA 1: CAATCTGAATTCCGGTCTCCC
DNA 2: TGGTGGCTACGACGGGATT
B8: CAACACG (DNA:RNA)
RNA: B2 RNA with G27A, U28C, C29A, A30C, A31G
DNA 1: CAATCTGAATTCCGGTCTCCC
DNA 2: TGGTGGCTACGACGGGATT
B9: UGUUCGA (DNA:RNA)
RNA: B2 RNA with C25U, A26G, G27U, A30G
DNA 1: CAATCTGAATTCCGGTCTCCC
DNA 2: TGGTGGCTACGACGGGATT

Changes are numbered by the printed parent chain; changes in the protein carry UniProt numbers. The list shows a part of the results.

The target of the assay is T1, RBFOX1 RRM (Homo sapiens, UniProt Q9NWB1 109-208).
T1 sequence: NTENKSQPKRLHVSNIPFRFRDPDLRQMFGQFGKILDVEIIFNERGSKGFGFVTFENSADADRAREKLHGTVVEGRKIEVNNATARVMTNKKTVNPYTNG
Description: EMSA; HiTS-Eq, 1 nM pool, 10 min; buffer printed only for the single-RNA assays: 10 mM Tris pH 7.5, 150 mM NaCl, 3.4 mM EDTA, 0.001% NP-40, 30 C. To be noted: tags: His6 N-terminal (pET28a); label: 5' 32P. Put shortly: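 Purified wild-type or mutant RbFox RRM at increasing concentrations was equilibrated with 1 nM of 5′-radiolabelled RNA carrying 7 randomized nucleotides for 10 min in 50 µL. Unbound RNA was separated by 8% native PAGE and sequenced. Relative association constants came from read-count changes of each RNA species compared with the control reaction, normalised to the cognate motif.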
In the case of B1, the binding signal is 0.0144 KA relative to UGCAUGU.

As for B2, the binding signal is 0.00279 KA relative to UGCAUGU. Take B3: the binding signal is 0.0101 KA relative to UGCAUGU. Take B4: the binding signal was 0.00218 KA relative to UGCAUGU. B5: the binding signal is 0.0122 KA relative to UGCAUGU. As to B6, the binding signal was 0.00488 KA relative to UGCAUGU. For B7, the binding signal was 0.0102 KA relative to UGCAUGU. In the case of B8, the binding signal is 0.00419 KA relative to UGCAUGU. Consider B9, for which the binding signal is 0.0305 KA relative to UGCAUGU.

For the origin of these results see PMC9911399, “Two distinct binding modes provide the RNA-binding protein RbFox with extraordinary sequence specificity”.
